Measurements as given in the supplement of paper PMC3334620.
In all, about 33,000 sequences were measured (“E-score (-0.5 to 0.5)”: median about -0.035, highest 2% from about 0.34 on). Some of the results follow.

Biological target: T1, Mot3 (UniProt P54785)
T1 sequence: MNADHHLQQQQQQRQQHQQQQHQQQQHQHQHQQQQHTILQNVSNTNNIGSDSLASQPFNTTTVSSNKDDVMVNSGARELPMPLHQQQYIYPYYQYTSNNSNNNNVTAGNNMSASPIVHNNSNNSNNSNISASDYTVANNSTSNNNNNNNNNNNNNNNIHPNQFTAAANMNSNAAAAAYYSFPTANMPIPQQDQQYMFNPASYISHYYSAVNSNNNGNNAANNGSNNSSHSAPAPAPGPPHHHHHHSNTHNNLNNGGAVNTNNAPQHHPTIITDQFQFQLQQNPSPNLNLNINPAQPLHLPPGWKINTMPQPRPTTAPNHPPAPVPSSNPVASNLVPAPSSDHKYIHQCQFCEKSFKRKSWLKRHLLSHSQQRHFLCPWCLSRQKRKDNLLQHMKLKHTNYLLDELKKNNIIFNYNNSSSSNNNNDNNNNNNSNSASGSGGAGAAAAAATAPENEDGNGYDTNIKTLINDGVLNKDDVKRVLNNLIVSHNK
Assay: PBM E-score (8-mer binding enrichment) (E-score (-0.5 to 0.5)); higher = stronger / more preferred TF binding; most listed sequences are background and not binding sites
Conditions: protein concentration: 200 nM; construct: GST-full length
Procedure, shortened: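 Yeast transcription factors, full-length or as DNA-binding domains, were expressed with a GST tag using PURExpress in vitro transcription/translation. At about 100-200 nM they were applied to universal all-10-mer Agilent arrays, double-stranded by primer extension on fresh or once-stripped slides. Fluorescent anti-GST detected bound protein, and masliner normalised the scans. E-scores for ungapped eight-base words, pooled with reverse complements, came from the Universal PBM Analysis Suite.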

Sequence	PBM E-score
AGTGCACC	-0.116
CGCTTCAG	-0.0319
AAATGACG	0.0556
CGAGGTAG	-0.318
AACCTGAG	-0.0479
CTCAACGC	-0.0236
GCACCTCA	0.184
CATCTTAA	0.0785
CAGGGCAA	0.0999
AGTCAACA	0.139
GGGGGCAA	-0.235
ACTCCCTG	-0.0992
CAGACCTC	-0.182
AAGTCGTA	0.0233
ATATATCG	0.0754
CCTATAAC	0.185
CCGAGTAC	-0.107
TACGGCGA	-0.155
GTACAATA	0.233
GGCGGCGA	-0.165
AGAGCATC	-0.309
AGCATGGA	-0.115
AGCGACAG	-0.0977
CAAAATAG	0.0224
TGAATACA	0.264

Sequence	PBM E-score
AAAAGTCT	0.0532
CATCAAGA	0.00242
AACGTAAC	0.205
AGAAGCCG	-0.291
CCCAAGAG	-0.15
AGGGCACC	0.246
AATAAAGG	-0.0129
TGAGTTAA	0.164
AGCTCCTG	0.104
CGCAGAGA	-0.105
GGTGAAAA	-0.0177
AATAAATA	0.162
GTGGTGTA	0.228
AGCGACTC	-0.134
GCTAGTCA	-0.23
GGCGCTCA	-0.193
CTAACAGA	-0.0801
ACTTGGCT	0.0138
AGCTATTC	-0.107
CACCCGAG	-0.336
ATGCAGTC	-0.0608
ACAACAAT	0.182
GATCTCCC	-0.297
ATATATCA	-0.0338
AAGATCCT	-0.0689

Sequence	PBM E-score
GCCCAAGA	-0.121
AATTGAGG	0.0355
CGGGCGCC	-0.149
ATGCCAGA	-0.151
AGTTGGCC	-0.184
GCTTCCAC	-0.233
ACCAAACT	-0.0325
ACCATGAA	-0.0629
GTGCATAA	0.084
GTGGTCCA	-0.178
AAAGATAC	-0.028
GCTGTAAC	0.0586
AATCACCC	-0.0596
AGAGGGGC	-0.00511
AAGGTCGC	-0.233
ACAGATCT	0.0117
CTATTCAG	0.159
AAGGCAAC	0.487
CAGATTTA	0.114
ACGGGACA	-0.184
ACCGCCTC	-0.0433
CAGTAATG	0.163
TCACTAGA	-0.0958
CTTAGTCC	-0.142
TAGCCGAA	-0.273

Sequence	PBM E-score
TACCGCTA	0.0203
CGTGTGGA	0.0449
AGACACTC	-0.144
AGAACCGC	0.164
AAAAACTA	0.151
GAGACACA	-0.109
ACTTCAAC	0.0553
GTCGCCGA	-0.141
GCAGTAAC	-0.0362
AACCCGTC	-0.122
ATACTCTA	0.00888
TTAAAGAA	0.178
TAAGGGAA	0.162
CATCCGGC	-0.264
CATTCAAC	0.133
ATTAGATG	0.179
AGTAACTA	-0.00888
CAAATAAG	-0.0976
CCTCGGCC	-0.174
ACACCCAC	-0.00986
CGTTATAC	0.178
ATTGTGTG	0.0589
ACCTCCGA	-0.168
ACTGTGCG	-0.0668
ACAACTCT	0.0579

Sequence	PBM E-score
ACAACTGA	0.172
GCCCTCCA	-0.18
CCATTACG	0.177
ATCTACCC	-0.115
AGGTTTTG	-0.119
CCCACACG	-0.144
CACCCCCG	-0.053
ACCGGTGA	-0.16
TGTCCTAA	0.1
AAATACCA	0.0521
GAAGCTAC	-0.0982
AACACAAC	0.327
AAAGCAAT	0.13
GGGGCGAA	-0.255
GGCTTACA	0.167
AAGGGACA	-0.126
TACGTATA	0.309
GGATGGCA	-0.14
AGAGTATC	0.0365
AAGGGAAA	0.0842
CCGAAGCG	-0.237
ATGGTGTG	0.19
ACTTCCAC	-0.156
GCTTTCAC	-0.037
AACGGGGG	-0.143

Sequence	PBM E-score
ACGAGGCC	-0.122
ATCTAAGC	-0.00987
AGATCAAC	0.136
AGGTACCA	0.361
CATACTAG	-0.00788
ATGTTGCG	0.157
GCCGAGTA	-0.243
CCTGTATC	0.137
ATCCAACA	0.056
CAGTAGCA	-0.0935
ACCCTCCT	-0.259
GATTGAGC	0.0033
AATCAGGC	0.32
GTTAAAGA	0.205
AGCCCGTG	-0.242
CACGATGA	0.0984
AGTATGGA	-0.144
ACGTACGA	-0.0917
CAGCCGTA	-0.2
ATGGCGAG	-0.0823
GGGCCGGA	-0.353
ACCAGACG	-0.164
ATACCAGA	-0.0343
GGTGCAAA	-0.0974
AAGACCTG	-0.079

Sequence	PBM E-score
AAAGCGAG	0.0551
AAAGCACG	0.048
CGAAAGGA	0.0272
CACCCCCA	-0.127
GCATTCTA	0.0333
AACCGCTG	0.0102
AATACCAG	0.0512
GCGTGGGA	-0.201
CCAAACAC	0.158
ACGTGTCC	-0.0702
AGTAAGAA	0.22
AAGAGAAA	-0.0221
GCTCAACC	-0.152
GAAATTGA	-0.0504
AGTTATCC	-0.0517
TGCGGGAA	-0.161
CTAGCTGA	-0.0565
ATTCGGCC	-0.0495
GTCATCCA	-0.0138
GGGATTAC	0.133
ACTTTCCA	0.0165
CATTTAGA	-0.136
CTCAGAGA	-0.203
TGGTTAAA	0.108
TATGCATA	0.1

Sequence	PBM E-score
CTCTCGTC	-0.248
CGCACATC	-0.154
GAAGTGCC	0.152
AAGGAACA	0.453
AATGGCCG	-0.0872
ATATCGTG	0.0368
ATCAACCG	-0.0778
CCCCAGGC	-0.0396
ATTGTATC	0.0238
ACAGAGGG	-0.131
ACACTGCC	0.0227
ATTGGGAC	-0.1
CTCACGGA	-0.131
AGGACCCT	0.0161
CGTAAAAA	0.258
AGACACAA	0.124
ATGCTTTG	0.182
GTGAATAA	0.154
ACCTTTCT	0.124
CTTGTGCC	0.215
ATAAATGC	-0.0513
CCTCTACC	-0.223
ATAATTAT	0.29
CACAAGAA	0.217
GGGATACC	-0.287

Sequence	PBM E-score
ATAGTGTA	0.0713
AGGATGGG	-0.266
AAGCTTCT	-0.0639
AGTTTTCA	-0.204
AAGCAAAC	0.0811
AGATATAG	0.0531
AGGTCTAG	-0.221
CATAGCAG	-0.0912
GGTCGACA	0.183
ACGCGAGT	0.166
TGTCTGAA	0.157
ACGAGCTC	-0.117
GATACCAC	-0.0749
ACGGACAG	-0.134
ACCATTCC	-0.0593
AACGTACC	0.0808
AAAGAACG	0.0624
CTTTGTAA	0.355
AGCAAGGG	-0.137
